From PubChem BioAssay AID504832 (National Center for Advancing Translational Sciences (NCATS), 2011)
About 18,000 (5.8%) of roughly 310,000 compounds were called active. Inconclusive means that the source gave no clear call. Such entries were picked first, then a sample of the others. The call rests on the fitted dose curve; in most records, active means well fitted inhibition curve with a large enough effect; inconclusive means small, poorly fitted or top-dose-only effect, or another doubt; inactive means no such curve, though single readings can be large or run the other way. Potencies of inconclusive entries are left out as doubtful fits.
On the % scale 0 is the no-effect control and ±100 the full control effect; potency means the concentration at half of the fitted maximal effect; tags describe the fitted curve by direction and shape.

Assay: Primary qHTS for delayed death inhibitors of the malarial parasite plastid, 48 hour incubation
Details: P. falciparum luciferase growth in erythrocytes; series mostly up to 28.7 µM; activity change, negative = inhibition: at the top concentration
Summary of the method: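 Here the parasites carry a stable luciferase gene and grow inside erythrocytes in Albumax-based RPMI medium with compound for one erythrocytic cycle. Activity is scored as loss of luminescent signal.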
In the case of `COC(=O)c1ccccc1CON1C(=O)C(C)(C)N(OCc2ccccc2C(=O)OC)C(=O)C1(C)C`, the Potency is reported as inconclusive [inhibitor, single point]. In the case of `CCOc1ccc(C(=S)N2CCCC2)c(OCC)c1`, the Potency is reported as inconclusive [inhibitor, full curve]. For `Cc1ccc(C2SCCN2C(=O)c2ccc([N+](=O)[O-])cc2)cc1` (stereo not drawn), the Potency was inconclusive [inhibitor, single point]. With `O=C1OC(/C(=C\Nc2ccc(F)cc2F)[N+](=O)[O-])c2ccccc21` (stereo not drawn) the Potency was inconclusive [inhibitor, single point]. For `Cc1ccc(C(=O)Nn2cnnc2)c(Cl)c1`, the Potency was inconclusive [inhibitor, single point]. For `COc1cc(C2NC(=S)NC3=C2CCc2ccccc23)cc(OC)c1OC` (stereo not drawn), the Potency was inconclusive [inhibitor, partial curve, poor fit]. In the case of `Cc1ccc(S(=O)(=O)/N=C(\N)Nc2nc(C)c3ccc(C)cc3n2)cc1`, the Potency is reported as inconclusive [inhibitor, single point]. With `COc1ccccc1NC(=O)CC(NC1CCCCC1)C(=O)O` (stereo not drawn) the “activity change, negative = inhibition” value was inactive: 22%. For `CCN1C=CC(=C2C(=O)c3ccccc3C2=O)C=C1`, the Potency was inconclusive [inhibitor, full curve, poor fit]. For `COc1cc(OC)cc(C(=O)Nc2nc(CC(=O)NCc3ccc(F)cc3)cs2)c1`, the Potency was inconclusive [inhibitor, single point]. For `CC(C)C(=O)Nc1ccc(S(=O)(=O)N2CCC(c3nc4ccccc4[nH]3)CC2)cc1`, the Potency was inconclusive [inhibitor, single point]. For `Cc1cc(C)cc(NC(=O)N2CCCN(Cc3c(F)cccc3Cl)CC2)c1`, the Potency was inconclusive [inhibitor, single point]. In the case of `NC(=S)N/N=C/c1ccc(-c2cc(Cl)c(Cl)cc2Cl)o1`, the Potency is reported as inconclusive [inhibitor, single point]. With `O=c1c(-c2ccccc2)c(O)c2ccccc2n1-c1ccccc1` the “activity change, negative = inhibition” value was inactive: -2.47%. With `Cc1cccc(N2CCN(C(=O)c3ccc(NS(=O)(=O)c4ccc5[nH]c(=O)[nH]c5c4)cc3)CC2)c1C` the Potency was inconclusive [inhibitor, single point]. With `COCCn1c(-c2ccccc2)cnc1SCC(=O)Nc1cccc2ccccc12` the “activity change, negative = inhibition” value was inactive: -23.4%. In the case of `Cn1c2c(c3ccccc31)CCN1CCC[C@]21c1ccccc1`, the activity change, negative = inhibition is reported as inactive: 1.41% [at 0.00184 µM]. With `CC(=O)c1ccc(NC(=O)CCc2nc3sc4c(c3c(=O)[nH]2)CCCC4)cc1` the Potency was inconclusive [inhibitor, single point].
